Measurements taken from the supplement of paper PMC10724272.
MIC of invasive clinical C. tropicalis isolates, CLSI broth microdilution (fluconazole 0.12-256 mg/L, up to 1,024 for the azole-resistant cluster and its neighbour group; other ranges not stated); higher = less susceptible. Call: susceptible or wild type [S] / resistant or non-wild type [R] by CLSI breakpoints or cut-offs; intermediate and dose-dependent carry no call. '<=' and '>=' at the end values are inferred; the source marks only some of them. Isolates are numbered anew.

What was measured:
Assay in all cases: CLSI broth microdilution.
amphotericin B = compound: C[C@@H]1[C@H](O)[C@@H](C)/C=C/C=C/C=C/C=C/C=C/C=C/C=C/[C@H](O[C@@H]2O[C@H](C)[C@@H](O)[C@H](N)[C@@H]2O)C[C@@H]2O[C@](O)(C[C@@H](O)C[C@@H](O)[C@H](O)CC[C@@H](O)C[C@@H](O)CC(=O)O[C@H]1C)C[C@H](O)[C@H]2C(=O)O [amphotericin B]
itraconazole = compound: CCC(C)n1ncn(-c2ccc(N3CCN(c4ccc(OCC5COC(Cn6cncn6)(c6ccc(Cl)cc6Cl)O5)cc4)CC3)cc2)c1=O [itraconazole]
voriconazole = compound: C[C@@H](c1ncncc1F)[C@](O)(Cn1cncn1)c1ccc(F)cc1F [voriconazole]
posaconazole = compound: CC[C@@H]([C@H](C)O)n1ncn(-c2ccc(N3CCN(c4ccc(OC[C@@H]5CO[C@@](Cn6cncn6)(c6ccc(F)cc6F)C5)cc4)CC3)cc2)c1=O [posaconazole]
flucytosine = compound: Nc1[nH]c(=O)ncc1F [flucytosine]
anidulafungin = compound: CCCCCOc1ccc(-c2ccc(-c3ccc(C(=O)N[C@H]4C[C@@H](O)[C@@H](O)NC(=O)[C@@H]5[C@@H](O)[C@@H](C)CN5C(=O)[C@H]([C@@H](C)O)NC(=O)[C@H]([C@H](O)[C@@H](O)c5ccc(O)cc5)NC(=O)[C@@H]5C[C@@H](O)CN5C(=O)[C@H]([C@@H](C)O)NC4=O)cc3)cc2)cc1 [anidulafungin]
caspofungin = compound: CC[C@H](C)C[C@H](C)CCCCCCCCC(=O)N[C@H]1C[C@@H](O)[C@@H](NCCN)NC(=O)[C@@H]2[C@@H](O)CCN2C(=O)[C@H]([C@H](O)CCN)NC(=O)[C@H]([C@H](O)[C@@H](O)c2ccc(O)cc2)NC(=O)[C@@H]2C[C@@H](O)CN2C(=O)[C@H]([C@@H](C)O)NC1=O [caspofungin]
micafungin = compound: CCCCCOc1ccc(-c2cc(-c3ccc(C(=O)N[C@H]4C[C@@H](O)[C@@H](O)NC(=O)[C@@H]5[C@@H](O)[C@@H](C)CN5C(=O)[C@H]([C@H](O)CC(N)=O)NC(=O)[C@H]([C@H](O)[C@@H](O)c5ccc(O)c(OS(=O)(=O)O)c5)NC(=O)[C@@H]5C[C@@H](O)CN5C(=O)[C@H]([C@@H](C)O)NC4=O)cc3)no2)cc1 [micafungin]
fluconazole = compound: OC(Cn1cncn1)(Cn1cncn1)c1ccc(F)cc1F [fluconazole]

Row | Test System | MIC (amphotericin B) | MIC (itraconazole) | MIC (voriconazole) | MIC (posaconazole) | MIC (flucytosine) | MIC (anidulafungin) | MIC (caspofungin) | MIC (micafungin) | MIC (fluconazole)
1 | Candida tropicalis isolate 347 (ERG11 copies: 2, Erg11p: no key change) | 1 mg/L [S] | 0.25 mg/L [S] | 0.12 mg/L [S] | 0.25 mg/L [S] | ≤ 0.06 mg/L [S] | 0.12 mg/L [S] | 0.12 mg/L [S] | 0.03 mg/L [S] | 2 mg/L [S]
2 | Candida tropicalis isolate 117 (ERG11 copies: 8, Erg11p: Y132F, S154F, P397S (heterozygous)) | 2 mg/L [S] | 1 mg/L [R] | ≥ 8 mg/L [R] | 1 mg/L [R] | ≤ 0.06 mg/L [S] | 0.03 mg/L [S] | 0.03 mg/L [S] | 0.03 mg/L [S] | 512 mg/L [R]
3 | Candida tropicalis isolate 440 (ERG11 copies: 5, Erg11p: Y132F, S154F (heterozygous)) | 1 mg/L [S] | 1 mg/L [R] | ≥ 8 mg/L [R] | 1 mg/L [R] | ≤ 0.06 mg/L [S] | 0.12 mg/L [S] | 0.25 mg/L [S] | 0.06 mg/L [S] | 256 mg/L [R]
4 | Candida tropicalis isolate 54 (ERG11 copies: 2, Erg11p: no key change) | 2 mg/L [S] | 0.12 mg/L [S] | 0.12 mg/L [S] | 0.25 mg/L [S] | ≤ 0.06 mg/L [S] | 0.06 mg/L [S] | 0.06 mg/L [S] | 0.03 mg/L [S] | 2 mg/L [S]
5 | Candida tropicalis isolate 202 (ERG11 copies: 2, Erg11p: no key change) | 1 mg/L [S] | 0.06 mg/L [S] | 0.06 mg/L [S] | 0.12 mg/L [S] | ≤ 0.06 mg/L [S] | ≤ 0.015 mg/L [S] | 0.015 mg/L [S] | 0.015 mg/L [S] | 1 mg/L [S]
6 | Candida tropicalis isolate 424 (ERG11 copies: 2, Erg11p: no key change) | 0.5 mg/L [S] | 0.12 mg/L [S] | 0.06 mg/L [S] | 0.25 mg/L [S] | ≤ 0.06 mg/L [S] | 0.03 mg/L [S] | 0.03 mg/L [S] | 0.015 mg/L [S] | 1 mg/L [S]
7 | Candida tropicalis isolate 394 (ERG11 copies: 2, Erg11p: no key change) | 0.5 mg/L [S] | 0.12 mg/L [S] | ≤ 0.008 mg/L [S] | 0.03 mg/L [S] | ≤ 0.06 mg/L [S] | 0.06 mg/L [S] | 0.03 mg/L [S] | 0.015 mg/L [S] | 0.25 mg/L [S]
8 | Candida tropicalis isolate 235 (ERG11 copies: 2, Erg11p: no key change) | 1 mg/L [S] | 0.12 mg/L [S] | 0.06 mg/L [S] | 0.12 mg/L [S] | ≤ 0.06 mg/L [S] | 0.06 mg/L [S] | 0.03 mg/L [S] | 0.03 mg/L [S] | 1 mg/L [S]
9 | Candida tropicalis isolate 330 (ERG11 copies: 7, Erg11p: Y132F, S154F (heterozygous)) | 1 mg/L [S] | 0.5 mg/L [S] | ≥ 8 mg/L [R] | 0.5 mg/L [R] | ≤ 0.06 mg/L [S] | 0.12 mg/L [S] | 0.03 mg/L [S] | 0.03 mg/L [S] | 512 mg/L [R]
10 | Candida tropicalis isolate 151 (ERG11 copies: 2, Erg11p: no key change) | 1 mg/L [S] | 0.12 mg/L [S] | 0.06 mg/L [S] | 0.06 mg/L [S] | ≤ 0.06 mg/L [S] | 0.12 mg/L [S] | 0.03 mg/L [S] | 0.06 mg/L [S] | 1 mg/L [S]
11 | Candida tropicalis isolate 225 (ERG11 copies: 2, Erg11p: no key change) | 1 mg/L [S] | 0.12 mg/L [S] | 0.12 mg/L [S] | 0.12 mg/L [S] | ≤ 0.06 mg/L [S] | 0.03 mg/L [S] | 0.03 mg/L [S] | 0.03 mg/L [S] | 2 mg/L [S]
12 | Candida tropicalis isolate 139 (ERG11 copies: 2, Erg11p: no key change) | 1 mg/L [S] | 0.25 mg/L [S] | 0.12 mg/L [S] | 0.25 mg/L [S] | ≤ 0.06 mg/L [S] | 0.03 mg/L [S] | 0.03 mg/L [S] | 0.015 mg/L [S] | 1 mg/L [S]
13 | Candida tropicalis isolate 33 (ERG11 copies: 2, Erg11p: no key change) | 1 mg/L [S] | 0.25 mg/L [S] | 0.12 mg/L [S] | 0.12 mg/L [S] | ≤ 0.06 mg/L [S] | 0.03 mg/L [S] | 0.03 mg/L [S] | 0.03 mg/L [S] | 2 mg/L [S]
14 | Candida tropicalis isolate 209 (ERG11 copies: 2, Erg11p: no key change) | 1 mg/L [S] | 0.25 mg/L [S] | 0.12 mg/L [S] | 0.25 mg/L [S] | ≤ 0.06 mg/L [S] | 0.12 mg/L [S] | 0.03 mg/L [S] | 0.03 mg/L [S] | 1 mg/L [S]
15 | Candida tropicalis isolate 208 (ERG11 copies: 2, Erg11p: no key change) | 0.5 mg/L [S] | 0.12 mg/L [S] | 0.06 mg/L [S] | 0.12 mg/L [S] | ≤ 0.06 mg/L [S] | ≤ 0.015 mg/L [S] | 0.015 mg/L [S] | 0.015 mg/L [S] | 1 mg/L [S]
16 | Candida tropicalis isolate 356 (ERG11 copies: 2, Erg11p: no key change) | 1 mg/L [S] | 0.12 mg/L [S] | 0.06 mg/L [S] | 0.12 mg/L [S] | ≤ 0.06 mg/L [S] | 0.12 mg/L [S] | 0.03 mg/L [S] | 0.03 mg/L [S] | 1 mg/L [S]
17 | Candida tropicalis isolate 112 (ERG11 copies: 5, Erg11p: Y132F, S154F (heterozygous)) | 1 mg/L [S] | 0.5 mg/L [S] | ≥ 8 mg/L [R] | 0.5 mg/L [R] | ≤ 0.06 mg/L [S] | 0.12 mg/L [S] | 0.12 mg/L [S] | 0.03 mg/L [S] | 256 mg/L [R]
18 | Candida tropicalis isolate 437 (ERG11 copies: 2, Erg11p: no key change) | 0.5 mg/L [S] | 0.03 mg/L [S] | ≤ 0.008 mg/L [S] | 0.015 mg/L [S] | ≤ 0.06 mg/L [S] | ≤ 0.015 mg/L [S] | 0.03 mg/L [S] | 0.015 mg/L [S] | 0.25 mg/L [S]
